# The list shows a part of the results.
# B1: Si Bti9 1b-HA (Solanum lycopersicum) (protein)
# chain: MFESRPRSVLSLGVFVILVYLSSVPLPVNSQCNRGCDLALASFYVWRGSNLTLISEMFSTSIADIVSYNNRDNIPNQDSVIAGTRINIPFRCDCLNDGEVLGHAFPYRVKSGDTYDLVARNYSDLTTAQWMMKFNSYPENNIPNTVNLSVVVNCSCGNSDVSKDFGLFVTYPVRAEDNLTSVASAANVSEDIIRRYNPAAVSILDIGQGIIYIPGRDRNGNFPPLPTSTDGLSGGAKAPLFFNPAFLYKVVELKLAGRSRTSGYPYDVPDYAGYPYDVPDYALEVLFQ
# Tests used:
# Test in all cases: glycan array binding signal (z-score within array); higher = stronger binding
# Details in all cases: glycan notation: IUPAC condensed, linker removed
# [1] = biological target: Gal(a1-3)[Gal(a1-4)]Gal(b1-4)GlcNAc
# Method in brief: (§1)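 The Consortium for Functional Glycomics database supplied 3228 glycan arrays, of which those lacking an available protein sequence were dropped. The binding signal, a within-array Z-score, was averaged across arrays of the same protein sequence and across linkers. Negative scores can be read as non-binding.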
# [2] = biological target: Gal(a1-4)Gal(b1-3)GlcNAc(b1-2)Man(a1-3)[Gal(a1-4)Gal(b1-3)GlcNAc(b1-2)Man(a1-6)]Man(b1-4)GlcNAc(b1-4)GlcNAc
# Method in brief: as §1
# Gal(a1-4)Gal(b1-4)Glc = biological target: Gal(a1-4)Gal(b1-4)Glc
# Method in brief: as §1
# Gal(a1-4)Gal(b1-4)GlcNAc = biological target: Gal(a1-4)Gal(b1-4)GlcNAc
# Method in brief: as §1
# [3] = biological target: Gal(a1-4)Gal(b1-4)GlcNAc(b1-2)Man(a1-3)[Gal(a1-4)Gal(b1-4)GlcNAc(b1-2)Man(a1-6)]Man(b1-4)GlcNAc(b1-4)GlcNAc
# Method in brief: as §1
# [4] = biological target: Gal(a1-4)Gal(b1-4)GlcNAc(b1-3)Gal(b1-4)Glc
# Method in brief: as §1
# Gal(a1-4)GlcNAc = biological target: Gal(a1-4)GlcNAc
# Method in brief: as §1
# Gal(a1-6)Glc = biological target: Gal(a1-6)Glc
# Method in brief: as §1
# Gal(b1-2)Gal = biological target: Gal(b1-2)Gal
# Method in brief: as §1
# Gal(b1-3)Gal = biological target: Gal(b1-3)Gal
# Method in brief: as §1
# Gal(b1-3)Gal(b1-4)GlcNAc = biological target: Gal(b1-3)Gal(b1-4)GlcNAc
# Method in brief: as §1
# Gal(b1-3)GalNAc = biological target: Gal(b1-3)GalNAc
# Method in brief: as §1
# [5] = biological target: Gal(b1-3)GalNAc(a1-3)[Fuc(a1-2)]Gal(b1-4)Glc
# Method in brief: as §1
# [6] = biological target: Gal(b1-3)GalNAc(a1-3)[Fuc(a1-2)]Gal(b1-4)GlcNAc
# Method in brief: as §1
# Gal(b1-3)GalNAc(b1-3)Gal = biological target: Gal(b1-3)GalNAc(b1-3)Gal
# Method in brief: as §1
# [7] = biological target: Gal(b1-3)GalNAc(b1-3)Gal(a1-4)Gal(b1-4)Glc
# Method in brief: as §1
# [8] = biological target: Gal(b1-3)GalNAc(b1-4)Gal(b1-4)Glc
# Method in brief: as §1
# [9] = biological target: Gal(b1-3)GalNAc(b1-4)[Neu5Ac(a2-3)]Gal(b1-4)Glc
# Method in brief: as §1
# Gal(b1-3)GlcNAc = biological target: Gal(b1-3)GlcNAc
# Method in brief: as §1
# [10] = biological target: Gal(b1-3)GlcNAc(a1-3)Gal(b1-4)GlcNAc
# Method in brief: as §1
# [11] = biological target: Gal(b1-3)GlcNAc(a1-6)Gal(b1-4)GlcNAc
# Method in brief: as §1
# Gal(b1-3)GlcNAc(b1-2)Man = biological target: Gal(b1-3)GlcNAc(b1-2)Man
# Method in brief: as §1
# [12] = biological target: Gal(b1-3)GlcNAc(b1-2)Man(a1-3)[Gal(b1-3)GlcNAc(b1-2)Man(a1-6)]Man(b1-4)GlcNAc(b1-4)GlcNAc
# Method in brief: as §1
# [13] = biological target: Gal(b1-3)GlcNAc(b1-2)Man(a1-3)[Gal(b1-3)GlcNAc(b1-2)Man(a1-6)]Man(b1-4)GlcNAc(b1-4)[Fuc(a1-6)]GlcNAc
# Method in brief: as §1
# [14] = biological target: Gal(b1-3)GlcNAc(b1-2)Man(a1-3)[GlcNAc(b1-4)][Gal(b1-3)GlcNAc(b1-2)Man(a1-6)]Man(b1-4)GlcNAc(b1-4)GlcNAc
# Method in brief: as §1
# [15] = biological target: Gal(b1-3)GlcNAc(b1-2)[Gal(b1-3)GlcNAc(b1-6)]Man(a1-6)[Gal(b1-3)GlcNAc(b1-2)Man(a1-3)]Man(b1-4)GlcNAc(b1-4)GlcNAc
# Method in brief: as §1
# [16] = biological target: Gal(b1-3)GlcNAc(b1-3)Gal(b1-3)GlcNAc
# Method in brief: as §1
# [17] = biological target: Gal(b1-3)GlcNAc(b1-3)Gal(b1-4)Glc
# Method in brief: as §1
# [18] = biological target: Gal(b1-3)GlcNAc(b1-3)Gal(b1-4)GlcNAc
# Method in brief: as §1
# [19] = biological target: Gal(b1-3)GlcNAc(b1-3)Gal(b1-4)GlcNAc(b1-2)Man(a1-3)[Gal(b1-3)GlcNAc(b1-3)Gal(b1-4)GlcNAc(b1-2)Man(a1-6)]Man(b1-4)GlcNAc(b1-4)GlcNAc
# Method in brief: as §1
# [20] = biological target: Gal(b1-3)GlcNAc(b1-3)Gal(b1-4)GlcNAc(b1-2)[Gal(b1-3)GlcNAc(b1-3)Gal(b1-4)GlcNAc(b1-6)]Man(a1-6)[Gal(b1-3)GlcNAc(b1-3)Gal(b1-4)GlcNAc(b1-2)Man(a1-3)]Man(b1-4)GlcNAc(b1-4)[Fuc(a1-6)]GlcNAc
# Method in brief: as §1
# [21] = biological target: Gal(b1-3)GlcNAc(b1-3)Gal(b1-4)GlcNAc(b1-3)Gal(b1-4)GlcNAc(b1-2)[Gal(b1-3)GlcNAc(b1-3)Gal(b1-4)GlcNAc(b1-3)Gal(b1-4)GlcNAc(b1-6)]Man(a1-6)[Gal(b1-3)GlcNAc(b1-3)Gal(b1-4)GlcNAc(b1-3)Gal(b1-4)GlcNAc(b1-2)Man(a1-3)]Man(b1-4)GlcNAc(b1-4)[Fuc(a1-6)]GlcNAc
# Method in brief: as §1
# [22] = biological target: Gal(b1-3)GlcNAc(b1-3)Gal(b1-4)GlcNAc(b1-6)[Gal(b1-3)GlcNAc(b1-3)]Gal(b1-4)Glc
# Method in brief: as §1
# [23] = biological target: Gal(b1-3)GlcNAc(b1-3)Gal(b1-4)[Fuc(a1-3)]GlcNAc
# Method in brief: as §1
# [24] = biological target: Gal(b1-3)GlcNAc(b1-3)Gal(b1-4)[Fuc(a1-3)]GlcNAc(b1-6)[Gal(b1-3)GlcNAc(b1-3)]Gal(b1-4)Glc
# Method in brief: as §1
# [25] = biological target: Gal(b1-3)GlcNAc(b1-3)GalNAc
# Method in brief: as §1
# [26] = biological target: Gal(b1-3)GlcNAc(b1-6)Gal(b1-4)GlcNAc
# Method in brief: as §1
# [27] = biological target: Gal(b1-3)GlcNAc(b1-6)GalNAc
# Method in brief: as §1
binder,measurement,setting,value
B1,glycan array binding signal (z-score),[1],-0.243
same,glycan array binding signal (z-score),[2],0.069
same,glycan array binding signal (z-score),Gal(a1-4)Gal(b1-4)Glc,-0.118
same,glycan array binding signal (z-score),Gal(a1-4)Gal(b1-4)GlcNAc,-0.314
same,glycan array binding signal (z-score),[3],-0.211
same,glycan array binding signal (z-score),[4],-0.274
same,glycan array binding signal (z-score),Gal(a1-4)GlcNAc,-0.212
same,glycan array binding signal (z-score),Gal(a1-6)Glc,1.13
same,glycan array binding signal (z-score),Gal(b1-2)Gal,0.983
same,glycan array binding signal (z-score),Gal(b1-3)Gal,-0.244
same,glycan array binding signal (z-score),Gal(b1-3)Gal(b1-4)GlcNAc,-0.198
same,glycan array binding signal (z-score),Gal(b1-3)GalNAc,-0.104
same,glycan array binding signal (z-score),[5],-0.047
same,glycan array binding signal (z-score),[6],-0.454
same,glycan array binding signal (z-score),Gal(b1-3)GalNAc(b1-3)Gal,-0.327
same,glycan array binding signal (z-score),[7],-0.431
same,glycan array binding signal (z-score),[8],-0.283
same,glycan array binding signal (z-score),[9],-0.122
same,glycan array binding signal (z-score),Gal(b1-3)GlcNAc,-0.351
same,glycan array binding signal (z-score),[10],-0.16
same,glycan array binding signal (z-score),[11],-0.324
same,glycan array binding signal (z-score),Gal(b1-3)GlcNAc(b1-2)Man,-0.408
same,glycan array binding signal (z-score),[12],3.24
same,glycan array binding signal (z-score),[13],1.03
same,glycan array binding signal (z-score),[14],3.72
same,glycan array binding signal (z-score),[15],2.51
same,glycan array binding signal (z-score),[16],-0.271
same,glycan array binding signal (z-score),[17],-0.456
same,glycan array binding signal (z-score),[18],-0.437
same,glycan array binding signal (z-score),[19],-0.204
same,glycan array binding signal (z-score),[20],0.333
same,glycan array binding signal (z-score),[21],0.38
same,glycan array binding signal (z-score),[22],-0.466
same,glycan array binding signal (z-score),[23],-0.109
same,glycan array binding signal (z-score),[24],-0.657
same,glycan array binding signal (z-score),[25],-0.393
same,glycan array binding signal (z-score),[26],-0.543
same,glycan array binding signal (z-score),[27],0.049
